Consider 55 compounds from ChEMBL document CHEMBL4888484, “Replenishing the malaria drug discovery pipeline: Screening and hit evaluation of the MMV Hit Generation Library 1 (HGL1) against asexual blood stage Plasmodium falciparum ,using a nano luciferase reporter read-out” (2022).

Among all 150,000 compounds or so, about 540 (0.36%) showed an effect of 50% or more. This is one part of the list.

The test system of this assay is Plasmodium falciparum. Put plainly: Primary screen in NF54 nanoGlo assay, in single point, at 2uM, 72h; a lower Z score goes with more inhibition. It counts as functional, Erythrocyte. Conditions: timepoint 72 hour.
Broadly, the % Inhibition is the drop in the measured response relative to a control, in per cent. As for `CC1CCC(C(=O)N2CC(=O)N(C)c3ccccc32)O1` (stereo not given), the “% Inhibition” value is -4% and the Z score is recorded as 0.52.
Regarding `CCC(=O)N[C@@H]1CC[C@@]2(OC)CCN(C(=O)c3ccc4[nH]nnc4c3)[C@H]2C1`, the “% Inhibition” value is recorded as -11% and the Z score amounted to 2.26.
Take `CCCc1nc(CN(C)Cc2cncs2)no1`: the “% Inhibition” value was -13% and the Z score was 1.42.
For `CC(C)(C)C(=O)N1CCC(CCOCc2ccc(F)cc2)CC1` the same measures were -16% and 3.03.
For `CCC(CC)n1nc(C)cc1C(=O)N[C@@H](C)c1ccc(Cl)cn1` the same measures were -7% and 1.06.
With `Cn1cnc(-c2nc(-c3ccc(-c4ccccc4)cc3)no2)n1`, the “% Inhibition” value was 0% and the Z score is given as -0.01.
Regarding `COC(=O)c1ccc(C(=O)OC)c(N)c1C`, the “% Inhibition” value is reported as -7% and the Z score was found to be 1.15.
For `CC(C)CN(Cc1ccsc1)C(=O)NCCc1ncc[nH]1` the same measures were 1% and -0.16.
For `CN1CC(=O)N(c2cccc(NC(=O)NCC3(Cn4cccn4)CC3)c2)C1=O` the same measures were 2% and -0.46.
Turning to `CCCN(Cc1cccnc1)C(=O)[C@@H](N)c1ccccc1Cl`, the “% Inhibition” value is -1% and the Z score turned out to be 0.11.
For `Cn1cc(NC(=O)CN2CCN(C(=O)OC(C)(C)C)CC2=O)cc(Cl)c1=O` the same measures were -5% and 0.7.
The corresponding values for `COc1ccc(COCC(=O)N2CC3CN(c4ccccc4)CC3C2)cn1` (stereo not given) are 3% and -0.43.
The corresponding values for `C[C@@H](C(=O)NCc1ccco1)n1nc(-c2ccccc2)c2cc(Cl)ccc21` are 1% and -0.28.
In the case of `O=C(NCc1nnc2n1CCC2)C1CC1c1cccc(F)c1F` (stereo not given), the “% Inhibition” value is listed as -5% and the Z score came to 0.71.
For `c1cc(-c2noc(COC[C@H]3CCCO3)n2)cs1` the same measures were -12% and 2.33.
Take `c1csc(-c2nc(COc3ccccc3-c3nnc[nH]3)cs2)c1`: the “% Inhibition” value was -18% and the Z score was found to be 1.79.
`CCc1nc2ccccc2n1[C@@H](CC)C(=O)NCCCn1ccnn1`: the “% Inhibition” value was -5% and the Z score is 1.
Consider `CC(C)CCN(C(=O)c1cc2ccccc2[nH]1)C1CC1`, for which the “% Inhibition” value was -3% and the Z score worked out at 0.35.
The corresponding values for `O=c1c2c(ncn1CCOCC(F)F)[nH]c1ccccc12` are -8% and 1.49.
For `O=C1C[C@H]2CC[C@@H](CN1)N2c1ncccc1F` the same measures were -8% and 1.38.
The corresponding values for `Oc1nnnc2c1cnn2-c1ccccc1` are 33% and -3.69.
Take `O=C1CN(Cc2cccc(OC(F)(F)F)c2)CCCN1`: the “% Inhibition” value is -3% and the Z score is 0.42.
As to `Cc1nn(C)c(C)c1C(=O)N1C[C@@H]2CC[C@H]1CN(CCCc1ccccc1)C2`, the “% Inhibition” value is 0% and the Z score is given as 0.08.
For `Cn1cccc1C(=O)NCCCc1nnc(N)s1`, the “% Inhibition” value was -16% and the Z score was found to be 1.48.
The corresponding values for `COCCNC(=O)C1CC(c2cccc(C)c2)CN(Cc2ccccc2F)C1` (stereo not given) are -3% and 0.34.
The corresponding values for `Cn1ccnc1N1CCN(CC(=O)N[C@](C)(C#N)C2CC2)CC1` are 2% and -0.25.
Regarding `COc1ccc(NC(=O)c2ccc(CN3C(=O)CNC3=O)cc2)c(OC)c1`, the “% Inhibition” value is -7% and the Z score came out at 1.32.
For `COc1c(C)cc(S(=O)(=O)Nc2ccc3c(c2)C(=O)N(C)CCO3)cc1C` the same measures were -14% and 2.51.
For `COc1cccnc1C(=O)NCc1cc2n(n1)CCCC2` the same measures were -26% and 3.58.
For `CCc1[nH]nc(-c2ccccc2OC)c1NC(=O)Cc1ccc(OC)cc1` the same measures were -12% and 1.59.
Regarding `CO[C@H]1COC[C@@H]1NC(=O)Cc1c(Cl)cccc1Cl`, the “% Inhibition” value is recorded as -12% and the Z score stood at 1.44.
Turning to `CCO[C@H]1COC[C@@H]1NC(=O)c1n[nH]nc1C`, the “% Inhibition” value is 0% and the Z score worked out at 0.03.
With `Cc1cc2c(cc1-c1ccnc(Nc3ccc(F)cc3)n1)NC(C)(C)C[C@@H]2C`, the “% Inhibition” value was -17% and the Z score came out at 2.25.
`Cc1cc(-c2nc3cc(F)ccc3n2C)ccc1NC(=O)N1CC[C@H](N)C1`: the “% Inhibition” value was -13% and the Z score is listed as 1.79.
The corresponding values for `CCc1cnc(C)nc1N1CCC2(CC1)C[C@H](c1ccccc1)C(=O)N2C` are 0% and -0.07.
For `Cc1cc(C(=O)NCCN(C2CCOCC2)S(=O)(=O)N(C)C)c(C)o1` the same measures were -4% and 0.58.
Take `COc1ccc(CNC(=O)c2n[nH]c3c2CCc2ccccc2-3)cc1`: the “% Inhibition” value is listed as -13% and the Z score is 1.13.
As for `O=C(NC(c1cccc(F)c1F)C(F)(F)F)C1CCOC1` (stereo not given), the “% Inhibition” value is -8% and the Z score came to 0.81.
For `CCN(CC)Cc1ccc2c(c1)CN(C(=O)c1cccc(OC)c1)CCO2` the same measures were 6% and -1.21.
With `CCn1cnnc1CN(C)C(=O)CCCc1cn[nH]c1`, the “% Inhibition” value is -3% and the Z score came to 0.43.
Take `O=C(c1cn(C(c2ccccc2)c2ccccc2)nn1)N1CCC[C@H](CO)C1`: the “% Inhibition” value is -25% and the Z score is 3.76.
For `C[C@H]1CN(Cc2ccncc2F)CCC1=O` the same measures were 5% and -0.86.
The corresponding values for `CCN(C)c1ccc(C=Cc2nc(C(=O)O)ccc2C#N)cn1` are 9% and -0.77.
For the compound `Cc1ncsc1CCN(C)c1nc(C(N)=O)cs1`, the “% Inhibition” value is given as -1% and the Z score amounted to 0.14.
For `CCOC(=O)c1sc2nc(-c3ccc(C)cc3)c(NCc3ccc(Cl)cc3)n2c1C` the same measures were -9% and 0.97.
In the case of `Cc1cc(NC(=O)c2cc(S(=O)(=O)N3CCN(C)CC3)cs2)no1`, the “% Inhibition” value is reported as -20% and the Z score came to 2.31.
Regarding `Cc1cccc(-n2nc(C)c(CCC(=O)NCc3ccccc3)c2Oc2ccccc2)c1`, the “% Inhibition” value is -21% and the Z score is listed as 2.31.
For `CCOCCS(=O)(=O)NCC(=O)N1CC(C)CCC1C` (stereo not given) the same measures were 1% and -0.17.
The corresponding values for `Cc1ccc(N(C)C(=O)CCN2C(=O)CCC2=O)c(C)c1` are -29% and 3.4.
Turning to `Cc1cnc(C(=O)NC2C[C@H]3CC[C@@H](C2)N3C(=O)Cc2cccc(F)c2)cn1` (stereo not given in full), the “% Inhibition” value was -2% and the Z score is 0.33.
Turning to `Cc1nc(NC(=O)CNC(=O)COc2ccccc2)sc1C`, the “% Inhibition” value is recorded as -4% and the Z score is reported as 0.83.
On to `O=C(Cn1nc(N2CCOCC2)ccc1=O)N1CCN(c2ccccn2)CC1`, for which the “% Inhibition” value was -22% and the Z score amounted to 1.9.
For `O=C1N(Cc2ccc(F)c(F)c2)CCC[C@@]12CCN(CC1CCCC1)C2`, the “% Inhibition” value was -10% and the Z score turned out to be 1.26.
Take `Cc1c[nH]c(CN(C)C(=O)Nc2ccc(C)c(C)c2)n1`: the “% Inhibition” value is reported as -6% and the Z score was 0.73.
For `COc1ccc(OC(C)c2nc(C3CCCN3C(=O)OC(C)(C)C)no2)cc1` (stereo not given), the “% Inhibition” value is -8% and the Z score is 0.93.
